# From the supplement of paper PMC11417369
# The other results are listed elsewhere or left out.
# Test system: PfAP2-HC AP2 domain (GST-tagged)
# Assay: gcPBM binding intensity (ln(normalized median fluorescence intensity)); higher = stronger DNA binding
# Procedure, shortened: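 After 1 h on an Agilent 4 × 180k array of primer-extended double-stranded 36-bp intergenic genomic probes and negative controls, bound GST-tagged P. falciparum DNA-binding domains were detected with Alexa488 anti-GST antibody and scanned at 488 nm. The domains had been expressed in E. coli, and binding took place in 1× PBS with 1% milk, 0.2 mg/ml BSA, 0.5% salmon testes DNA and 0.03% Triton X-100. Binding intensity is the highest Masliner-normalised natural-log median intensity across replicate spots of either probe orientation.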
row,Sequence,gcPBM binding intensity (ln)
1,ATCTTTATTTTTAGCGCACACATAAAATAATAATAA [CACACA_site3458],9.83
2,CAAAGCATTTTATCTACACACATATATAAATAAATA [CACACA_site7500],9.77
3,TATTTTAACTTTTTTTCCTTTATTCATTTTTTTTTC [CACACA_negctrl_site971],9.53
4,TGATGCAAGATATATACACACATATAAATATAAATA [CACACA_site7429],9.9
5,TTTTTTTTTTTATGTGCACACAAAAGATGCTTATAT [CACACA_site2347],9.92
6,TTATGATAACTTTGCACACACTTAGGAAAAGTTATG [CACACA_site6836],9.71
7,ATGCATCATTTATTTGCACACCTATTATATACTTTT [CACACA_site2097],9.95
8,TATATATATATAATATGTACATATATATATTCTTAA [XGTACX_site6154],9.49
9,ATAATTCATGTTTAGTGTACAAAAAATTAAAGCAAC [XGTACX_site8891],9.87
10,AAATAATTTATATGTAGTACATGTTGTAGATAATTT [XGTACX_site1031],9.78
11,GATATAGATATTAATTGTACATATTATTTATTGTTA [XGTACX_site846],9.69
12,TTCTAAAAAGGGTGTACACAAACGAATGGAAAATAA [CACACA_site5483],9.82
13,ATAATTTTTATTTGTACACACATACAGATATATTAT [CACACA_site4701],10
14,GATATGTACTAATACACACACATATATATATATATA [CACACA_site1022],10.2
15,TAAAGGTGTAAAACTGCATGCTGGAGAAAAGTAAAA [TGCATGCA_site591],9.77
16,AATAATACGTTAAATGTTCTTACAAGTTGGTTTCAT [CACACA_negctrl_site1029],9.63
17,AAAAAAAAATTTGTATCACACACGTATTATAAAAAA [CACACA_site6],9.83
18,ATTATATAATATAATGCATGTGTTAATGAAAAATCT [TGCATGCA_site426],9.69
19,AAAAAAAAAAAAAAGTGTACCTTATTATACTTTAAT [XGTACX_site8439],9.52
20,CACACTAAAAGACACACACACACACGCATATAAATA [CACACA_site7874],10.8
21,AAATATATATATATATGTACACACACACATATAAAT [XGTACX_site847],10.4
22,TTGTAGGAATTTATTTTGACTGATAATTAATACGTT [GTGCAC_negctrl_site46],9.47

row,Sequence,gcPBM binding intensity (ln)
1,ATTAAACATACATATACACACACACCCACCCACCCA [CACACA_site8057],11
2,TAGTGTAAAAAATACGCATGTGTACAAATATAATAA [TGCATGCA_site498],10.1
3,AATTATACTCACGTTACACACACACTATAAATATAT [CACACA_site7863],10.2
4,AAAAATTTGGCATACACACACACACGCACACGCACA [CACACA_site6422],10.6
5,ATTAATATGAATAAAACACACATATATAACTTGTAA [CACACA_site6989],9.79
6,TGATAATAAGCATACACACACACACCCAAAAAAAAA [CACACA_site721],11.2
7,AACTAAATGTTATTCGCACACGGAATTTATTTAATG [CACACA_site3664],9.8
8,AAATAAAAAAAAAAAAAAAATAACTTAAATGGGATA [TGCATGCA_negctrl_site595],9.51
9,TTTTTTTTTTCTTTTTTTCTCATGAAATTCTAAATG [CACACA_negctrl_site918],9.37
10,ATATATATATATATATATATATATATGATTATTACT [GTGCAC_negctrl_site109],9.64
11,CCTATAAAACCATATACACACATATAAATAAAAAAA [CACACA_site7809],9.96
12,TAAACTATATTTACATGTACATATAATATTAAATAA [XGTACX_site3528],9.5
13,AAAAAAAAATTAGGGGTGCCATTTGCTGCTGTGCTT [GTGCAC_site9913],9.59
14,TTTTGTATTTCTCACACACACATAAGTAAACAATAA [CACACA_site5105],10.1
15,TAGTAAAAGATATACACACACCAAAAAATATAATTA [CACACA_site7142],10.5
16,TATATATGGGTACTAATTCCTTTAATTTCTTTAATT [CACACA_negctrl_site949],9.53
17,AATTATATTCAAAATGGTACACACAATATTTAATTG [XGTACX_site5521],9.82
18,AATAGATATATAAATACACACAAACATACCTATATA [CACACA_site7823],10.6
19,AAACAAAGGGAACATGTGCACTTACAAAAAAAAAGA,9.75
20,TCACACCTTTTTGGTTGTACTTAAATTTCTTTTTTT [XGTACX_site6438],9.5
21,TTCCCTTATTTTGTATGTACACAATTTATCATGTTG [XGTACX_site2896],9.98
22,ATATATATATATGCATGTACATATATTTGTTATATC [XGTACX_site3197],9.71

row,Sequence,gcPBM binding intensity (ln)
1,ATTTATTTTAATTTTTTTTTTTCTCTTTTGGATCTA [CACACA_negctrl_site1408],9.38
2,TTCTCAAAGTTTACGTGTACATAAATTATATAAATG [XGTACX_site2622],9.5
3,TGTAATATGAAATGTGTACACACGCACCCACAAAAA [CACACA_site8948],10.3
4,ATTAGGCATATTTTCTGTACACAATAATAAAAAAAA [XGTACX_site3957],9.29
5,AATGAATTTAATTCTACTATTTTTTTTTTAAATATT [XGTACX_negctrl_site296],9.47
6,GACAGATTATAGCATAGTACTCATACATACATACAT [XGTACX_site1252],9.77
7,TACATACATACATACACACACACATCTATATTTATA [CACACA_site6171],10.6
8,TTTCAAAAATTATTTTGTACATATAATTAATATACG [XGTACX_site512],9.48
9,ATTAAATACATTAACACACACACAAATAAATACATA [CACACA_site5583],10.4
10,TTTTATTATTTGTCTTGTACTCATTGTAAGAGTATG [XGTACX_site1538],9.53
11,AAAAAAAAAAAAATGGTGCAACTTTGTTAAAGGAAA [GTGCAC_site9950],9.72
12,ATTTAAAAGTTGGTAGTGCATTAAAAATAACAAAAA [GTGCAC_site9835],9.6
13,AATTTCTTCCATTGTAGTACTCAATTTTTTTTTGTT [XGTACX_site5847],9.87
14,GTGTAATATTATATATATATATATAATATATATACA [CACACA_negctrl_site263],9.56
15,CACATATACAAAAAGAAATGTTTAGTTGAAAATTAA [CACACA_negctrl_site1407],9.43
16,GTAATAAATTAAATATGTACATATTAAAATTAAGGA [XGTACX_site2290],9.86
17,ATTGATACATCCAATACACACTACAGATAATGATGT [CACACA_site5098],9.78
18,GAATTAATTTTAAAACGTACATGGGTGTATTTACAC [XGTACX_site5939],9.53
19,CATAATACAAATGTGATACCTGAAAATGACTTATTA [CACACA_negctrl_site994],9.72
20,TTCTTTTTTGTAATAACACACACACTAACAGAAAAA [CACACA_site8646],10.2
21,TGCTACATAATATGTACACACATATACATATTTATA [CACACA_site6545],9.93
22,GTATGATTAAATAAAGGTACACTTATATTTATTTAT [XGTACX_site6966],9.57

row,Sequence,gcPBM binding intensity (ln)
1,TATCACATTTATGAGAGTACATAATTAATTCATGAT [XGTACX_site7850],9.53
2,TTTTATTTTATATAACAACAAAATGGAAATATATAT [GTGCAC_negctrl_site71],9.41
3,GTCAATATTTAGATATGTACTAAGGAGTGCTATATA [XGTACX_site222],9.61
4,TAAATGAAAATAAATTAACACACAATTTTAATATTG [CACACA_site8360],9.66
5,ATATTATGAAGGGATATTTTCAAAAATATTAGGAGA [CACACA_negctrl_site942],9.62
6,AATTATACATATATTTAACACACATTTTATAAAGTG [CACACA_site8362],9.66
7,ATATATATATATAATTGTACATGTGTGTATAATTTG [XGTACX_site2417],9.8
8,TTGGAATAATATAAATAAATAAATATATATATATAT [CACACA_negctrl_site900],9.5
9,ATACAACAGATATATACACACATATAACAATAATAA [CACACA_site7560],10
10,AAAAAAAAAAAATGTGCACACGCGTACACCCAAAAA [CACACA_site8614],9.98
11,TTTCTTTTTGTTCGTGTACACACATGAAATTTATAA [CACACA_site8466],9.82
12,CAATTTTTATGTGTGTGTACTCATTTGTTTTATAAA [XGTACX_site406],10
13,TCATAGTATGGACACACACACACACCCATATATATA [CACACA_site5033],11.2
14,TATTATATTAATGATGGTACAGTGTATATATATAAT [XGTACX_site1286],9.61
15,ACATATAATATAAAGTGTACAAGAAAATAAAAATAA [XGTACX_site1273],9.95
16,TTTCCATATTTTTAAAGTACATATTTCCGTTTCCAC [XGTACX_site7832],9.58
17,TTATTTGATTACTTGCGTACTTATTTCATATTTTTT [XGTACX_site6648],10
18,GGGATATTTTAAAGGGTGCATATTATTAAAATAATG,9.48
19,ATGAGAAAACATAAAAGTACAAAAAGAAAAAAAAAA [XGTACX_site6020],9.65
20,TTTATTTTATAATTCACACATATATACCTATTTTAT [CACACA_site5709],9.79
21,GTGTGGTGCTCGAGGAGTACAAACAATATGTAATTT [XGTACX_site4160],9.62
22,TAAACAGACATATAAACACACATATAAACAGACATA [CACACA_site7214],10.2
